Read counts are not given, so values of variants with three or more changes are uncertain.
B1: LINE1-full (parent)
chain: UACGUAGGUGGUUUUCCCCUGAUAGUGCUAAGGGGGCCUGGAAGUUUGGACUGGGCAGAGCUCAACACAGCGUGGCAAAGUGGCUGUGGCUAGACUGCCUCUCUGGAUUCCUCGUCACUCAGCAGGGCAUCUCUGAGAGAAAUGCC

Variants of: B1
Experiment: self-cleavage, relative activity (ratio to wild type); higher = more cleavage; in vitro, sequencing; the parent is a self-cleaving ribozyme

Q: With G35A A79G U81C U115C as the variant, how does the self-cleavage read?
A: 0.88

Q: For U62C U91C G125C, which self-cleavage is on record?
A: 0

Q: With U1C A42G G82A U112C A124U A129U A141G as the variant, how does the self-cleavage read?
A: 2.27

Q: Which self-cleavage does the source give for U15A A30U U46A U100C here?
A: 1.07

Q: With A2G U9C A65G as the variant, how does the self-cleavage read?
A: 0

Q: Which self-cleavage does the source give for A42G U45C A69G here?
A: 0.92

Q: With A121U U130A A142G as the variant, how does the self-cleavage read?
A: 1.19

Q: Which self-cleavage does the source give for U109C U132C U143A here?
A: 1.33

Q: Which self-cleavage does the source give for U1C A59G U62C U91A U96A U109C here?
A: 0.75

Q: Which self-cleavage does the source give for U47A A65G G74A A117G here?
A: 0

Q: Which self-cleavage does the source give for A42C U73A A94G U109A here?
A: 0.06

Q: For U14A G27A U100A A138G, which self-cleavage is on record?
A: 0.24

Q: For U39A A94U U102C A136G, which self-cleavage is on record?
A: 0

Q: With A31U A57G G80A A124G as the variant, how does the self-cleavage read?
A: 0.36

Q: Which self-cleavage does the source give for U62C A94C A142G here?
A: 0

Q: With U26C C28U U47A A77U U115C U143C as the variant, how does the self-cleavage read?
A: 1.29

Q: Which self-cleavage does the source give for U47C A136U A140G A142U here?
A: 1.31

Q: For U12C A92G G144A, which self-cleavage is on record?
A: 0

Q: Which self-cleavage does the source give for U23C A69U U73A A136G here?
A: 0.1

Q: Which self-cleavage does the source give for C19A A57U G126U A138G here?
A: 0.1

Q: For U39A U112C C120A A121G A138G, which self-cleavage is on record?
A: 2.17

Q: With A43U U62A A69G as the variant, how does the self-cleavage read?
A: 0.09

Q: Which self-cleavage does the source give for A94U U104C A124G here?
A: 0.21

Q: With U9C C51U C63A U102C as the variant, how does the self-cleavage read?
A: 0.11

Q: For A69G U115A A142G, which self-cleavage is on record?
A: 0.32

Q: With U1C G32C U96C A121U C133A as the variant, how does the self-cleavage read?
A: 0.18

Q: With A31G A77G A138U as the variant, how does the self-cleavage read?
A: 2.53

Q: With U52A A65G G74A as the variant, how does the self-cleavage read?
A: 0.05

Q: For U39A A65G A124G, which self-cleavage is on record?
A: 0.11

Q: Which self-cleavage does the source give for U13C A42G U47C G58A G86A here?
A: 0.12

Q: With U9A G53U U130C A136G U143A as the variant, how does the self-cleavage read?
A: 1.19

Q: Which self-cleavage does the source give for G8A U12C A129G U134A here?
A: 0.88

Q: For G35A A42U A57U A79G, which self-cleavage is on record?
A: 0.02

Q: Which self-cleavage does the source give for U5C U46C A121C U132C here?
A: 0.84

Q: For U13C U14C U62A, which self-cleavage is on record?
A: 0.06

Q: Which self-cleavage does the source give for U46C A79G A140G here?
A: 1.15

Q: Which self-cleavage does the source give for U9C U14C A94G here?
A: 0.11

Q: For G49A G54A G114C, which self-cleavage is on record?
A: 0.41

Q: With C51U A77C U85C as the variant, how does the self-cleavage read?
A: 0.16

Q: For A43G U115A C116U A117C, which self-cleavage is on record?
A: 1.1

Q: Which self-cleavage does the source give for A43G U112C U119C here?
A: 1.62

Q: With G82A U102C A124G as the variant, how does the self-cleavage read?
A: 1.82

Q: With U39C A50U A64G U100C U119C as the variant, how does the self-cleavage read?
A: 0

Q: Which self-cleavage does the source give for G35A U104C U115A here?
A: 1.27

Q: With A2G A42G U52C A124G as the variant, how does the self-cleavage read?
A: 0

Q: Which self-cleavage does the source give for U20A A43G A140G A141G here?
A: 1.42

Q: For A43G A77G A129U, which self-cleavage is on record?
A: 1.1

Q: For U73A C120U A141G, which self-cleavage is on record?
A: 1.84

Q: With U87A U104A A136U A142G U143A as the variant, how does the self-cleavage read?
A: 0.11

Q: Which self-cleavage does the source give for U26A C71A U109C A124G here?
A: 0.09

Q: With U13C C56G U87A A94G U100C as the variant, how does the self-cleavage read?
A: 0.41

Q: With A22U C103A U130C A142G as the variant, how does the self-cleavage read?
A: 0.8

Q: Which self-cleavage does the source give for U81C U100C U108C G137U C145U here?
A: 1.15

Q: With A24G U73C U87C A136U as the variant, how does the self-cleavage read?
A: 0

Q: Which self-cleavage does the source give for U1C C19U G89U here?
A: 0.03

Q: Which self-cleavage does the source give for G27A U46A A65G A78G here?
A: 0.03

Q: Which self-cleavage does the source give for A22G U47A U112C here?
A: 1.19

Q: With C37G A59C A78U as the variant, how does the self-cleavage read?
A: 1.72

Q: Which self-cleavage does the source give for A57G U96C A142G here?
A: 1.36

Q: With U15G U29C A65G U85A U104A U130A as the variant, how does the self-cleavage read?
A: 0

Q: For U102C U112C A142G, which self-cleavage is on record?
A: 1.15

Q: With U26A U39C C66U A92G U115C A140G as the variant, how does the self-cleavage read?
A: 0

Q: Which self-cleavage does the source give for U26A A67G A117U here?
A: 0.54

Q: With A42G U102C G127U as the variant, how does the self-cleavage read?
A: 1.2

Q: For U5C U13C A22G U47C C61U U62A U132A, which self-cleavage is on record?
A: 0.38

Q: For U20C A30G A136U, which self-cleavage is on record?
A: 1.13

Q: For A22G U62C A78U, which self-cleavage is on record?
A: 0.11

Q: For U14C A78G A79G C118U A129U, which self-cleavage is on record?
A: 0.28

Q: With U15C U104A A124G as the variant, how does the self-cleavage read?
A: 0.56

Q: With A31G U46C U143G as the variant, how does the self-cleavage read?
A: 1.25

Q: With U5A U14C U15C U26G U100A as the variant, how does the self-cleavage read?
A: 1.23

Q: With C56U A57C U62A A67C U119C as the variant, how does the self-cleavage read?
A: 0.09

Q: Which self-cleavage does the source give for U1C A2G A30G U81C here?
A: 0.88

Q: Which self-cleavage does the source give for U12C A57G A121G C131U A138G here?
A: 1.67

Q: Which self-cleavage does the source give for A2G U12G A59G here?
A: 0.61

Q: Which self-cleavage does the source give for U20C A43G A92G here?
A: 0.42

Q: For A30G C63A A77G A121G, which self-cleavage is on record?
A: 0.13

Q: For C66U U91C U132A A140G, which self-cleavage is on record?
A: 0.03

Q: For U26A U119C U143C C145A, which self-cleavage is on record?
A: 1.27

Q: Which self-cleavage does the source give for U9C A57G A107G here?
A: 1.31

Q: With U20G U26C A30G U52A as the variant, how does the self-cleavage read?
A: 1.72

Q: Which self-cleavage does the source give for A57G C68U A69U here?
A: 0.1

Q: For U14C U47C U108C, which self-cleavage is on record?
A: 1.97

Source: the RNAGym collection of RNA variant scans (doi:10.7554/elife.90254)
